Assay results reported in the supplement of paper PMC3334620.
The full ranking holds about 33,000 sequences; the median of “E-score (-0.5 to 0.5)” is about -0.056, and the highest 2% start at about 0.38. The list shows a part of the results.

Target: Stb4 (UniProt P50104)
Experiment: PBM E-score (8-mer binding enrichment) (E-score (-0.5 to 0.5)); higher = stronger / more preferred TF binding; most listed sequences are background and not binding sites
Conditions: protein concentration: 200 nM; construct: GST-DNA-binding domain
Summary of the method: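 E-scores (a modified Wilcoxon-Mann-Whitney statistic) were assigned by the Universal PBM Analysis Suite to every ungapped eight-base word pooled with its reverse complement. The input came from universal all-10-mer Agilent arrays made double-stranded by primer extension and probed with GST-tagged yeast transcription factors at about 100-200 nM. Fluorescent anti-GST detected bound protein, and masliner normalised the scans.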

Sequence	PBM E-score
ATCCTACA	-0.14
CGGAGCAC	0.199
ATTCAAAG	-0.235
ACGGGGAG	-0.0728
CGTAACAG	0.0322
CGCGGGTC	0.213
CAACGACA	-0.11
CCTTAGTA	-0.124
CAGACCTA	-0.318
AACTCCGC	0.114
AGTTCGAG	-0.165
AAATTCAC	0.105
CACCGAAG	0.228
ATGATCCC	0.157
GATAAATA	0.0194
TGGTTGAA	-0.175
GGCTAAAC	0.151
GGGCGCAA	-0.261
GGATTATA	0.117
AACGTCAC	-0.123
ACAAATCA	-0.0983
AGAGATGG	-0.101
GTGATAAC	-0.0714
TAGAGAGA	-0.172
CCCCAGGG	-0.153

Sequence	PBM E-score
GGATCACA	0.228
GCGTCGCC	-0.117
CAATTGCC	0.0172
CACCGCCA	-0.0882
CTCCAACC	0.046
ATGCCCAC	-0.065
CGGTTCTA	0.188
CTCGAAAA	-0.32
CAAAAACG	0.144
CAACCAAG	-0.299
CGGGGGCA	0.0216
ACATGAGC	-0.175
GAACGATA	-0.00218
GACGAATC	-0.125
AGTAACAG	0.0685
AAGCCCGG	0.301
CGCTCATA	-0.138
AGATACCC	0.166
AAACCCTA	-0.16
CAGACCCC	-0.0742
ACCTCTGG	-0.0495
ACGTACAG	-0.037
ACGACGCG	-0.0636
GCAGCAGC	-0.243
GCACATCA	-0.14

Sequence	PBM E-score
AGGAGATG	-0.0793
TAGACTAA	-0.21
CACTGTGG	-0.332
GGGCCAAA	0.0592
CGTTGATA	0.0343
GTTCCAGA	-0.138
ATTCAATC	-0.0479
TGGGTTAA	-0.126
ACGTTACC	0.0953
CCAGGGAA	-0.219
GTGTCACA	0.124
CGATGGGA	0.0778
ACACCTGG	-0.0317
GAAGGTCC	0.0332
ATGGTTCG	0.131
GGTCAATA	-0.139
CTAGTGTC	-0.00474
AATTAATT	-0.215
AGGACGTG	-0.229
GTTCTCGA	-0.166
AGGCCCCC	-0.044
TAAGTCGA	-0.226
GTTCGATA	-0.104
AATCCCCG	0.262
ATCCGGGC	0.405

Sequence	PBM E-score
AAAGGTCC	-0.0874
ACCTTGGA	-0.295
AGAGAGTG	-0.176
ACTTATGA	-0.143
GCTTTTTA	-0.0236
CTGGATAA	0.137
ACGTGAGA	-0.173
CCGGAAGA	0.389
AGTAAGGC	-0.0381
GAGTTGGC	-0.0113
CCCCAATA	-0.3
AAACCATC	0.161
AACCGACG	0.304
AGTTCTAA	-0.0393
AGTGACTC	-0.187
ACCACGCA	-0.233
CATACGCC	-0.11
CTGAGAGA	-0.241
ATCAGTGC	-0.117
GTAACCGA	0.386
ATGAAGTG	-0.195
ACCTCCAG	-0.0534
CGACAGGC	-0.156
ACGGGTAG	0.301
ATGTACGA	0.0589

Sequence	PBM E-score
CAGGAACG	-0.144
AAAAGCGT	-0.116
AAGCTATC	0.0536
GCCATGAC	-0.122
GTAATTCA	-0.045
TCTCACCA	-0.043
GCGGATCA	0.196
CATATGCC	-0.0643
ATTTGCCA	-0.26
AGATAACT	-0.0589
CATCTTGC	-0.12
ACCGCAAT	0.152
CCACAGCA	-0.125
ATGCTAAA	-0.212
CAAAAATC	-0.141
AGCGTAAA	-0.0609
AACACGCG	-0.0357
AAAATTTG	-0.174
GGTGCGTA	-0.131
ATGGTGTA	-0.232
GGAGCACA	-0.00639
AGCGCTCC	-0.039
GATGATAA	-0.0782
ATTCAAGG	-0.2
AACTGAGA	-0.239

Sequence	PBM E-score
CACAAGCA	-0.23
GGGCAACA	-0.129
ACCAGCGT	-0.3
CCCAATCG	0.0319
AGCGTACA	-0.243
ATCATGGG	-0.125
AGAAGTTA	-0.217
CCCCCGAG	0.352
AGGCCCGG	0.203
AAGGGCCC	-0.0455
ATCACGCG	-0.0428
AAAAGGTG	-0.268
ATACTAGG	-0.0173
CACGTCCG	0.136
AGAGTTTA	0.0803
AGAGACAT	-0.0452
AGTGACGA	-0.081
CGGACGGA	0.296
GGGGTTAA	0.0779
ATGTTCCG	0.448
AACCGGAT	0.383
ACAATTAG	-0.0931
CCCGCACC	0.236
GATCATCC	0.188
GGTAAGAC	0.0667

Sequence	PBM E-score
CTCAAATA	-0.146
ACAAGGCC	-0.116
CTGATTTA	0.0124
AGCTGGAT	-0.0862
CTTATACA	-0.168
AAACTGGT	-0.0578
GACACTGA	0.0091
CCTTGAAC	-0.122
ACCAATCC	0.0776
GAGTGTAC	-0.0195
GTAGCACA	-0.22
AAAAGACC	-0.102
CATGCAAC	-0.089
CCAGCGAC	-0.216
CTAATAAC	-0.106
AGTATAGG	-0.0135
ATGCCGCC	0.1
CTTGCATC	-0.0179
CTCGCGCC	0.0929
AGCGACTA	-0.317
ACATCCTA	-0.319
CAAGGCTA	0.0425
ACTCTTTA	-0.29
GTGCGTGA	0.166
AATGCGTA	-0.107

Sequence	PBM E-score
AACAAAAA	-0.0828
AGGTTAGG	-0.0245
ACCCAGGT	-0.182
CGCAACTC	0.0825
GCGAGTCA	-0.118
TAGCACCA	-0.101
CTTGCGAA	0.00107
ATCGTCGG	0.339
ACTCGTTC	0.0661
ACTGCGTC	-0.289
ACGGAAAT	0.357
GAACGCAA	0.0345
ACAAATAG	0.0571
CCCGTTTA	0.0245
CACCCCAA	-0.141
AAATCGTT	-0.182
CCAGGCAG	-0.185
CCCTGCCA	0.0573
CAGTCAGA	-0.283
CCGTATAA	0.225
CCGGGGGC	0.187
ACAGAGCT	-0.137
GACTATAC	-0.0767
ACGTTTTA	-0.135
TACCTTAA	-0.00825

Sequence	PBM E-score
GTGTAAAA	-0.0759
ATGCGGGA	0.319
CTCCTATC	-0.106
ATTTTAAA	0.0732
AAGTAGGT	-0.0424
GGTATTGA	0.0621
AATACACT	-0.156
GCCTTTAC	-0.031
GGTCTATA	-0.115
CTTGCCAC	-0.138
GTTGGGCA	-0.0881
AGTGCTTA	-0.101
AGTGGGCC	-0.161
ATGTTCTG	-0.0519
CCATTCCG	0.35
TCAAACAA	-0.0936
CTTTGAAC	-0.108
AAGTCAAG	-0.26
CGGATTGC	0.308
